Values joined by “and” are separate entries in the source; they are usually repeats but may differ in a detail not shown here. Equal entries are not always repeated. Among all 340,000 compounds or so, about 12,000 (3.5%) were called active. Inconclusive results, whose numbers are uncertain, are shown with a selection of clear calls. The call rests on the fitted dose curve; in most records, active means well fitted inhibition curve with a large enough effect; inconclusive means small, poorly fitted or top-dose-only effect, or another doubt; inactive means no such curve, though single readings can be large or run the other way. A potency beside an inconclusive call is a rough fit, not a confirmed value. More than one record can exist for a structure, and the calls need not agree.
Assay: qHTS Assay for Inhibitors of Hepatitis C Virus (HCV)
Conditions: Huh7.5.1 HCVcc-Cre (HCVcc is cell-culture hepatitis C virus) infection, luciferase reporter, 44 h; activity change, negative = inhibition: at 41.8 µM (top of the series)
Procedure, shortened: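 After 44 h co-culture of compound, cells and HCVcc-Cre (~0.5 moi), substrate is added for 15 min at room temperature and luciferase measured over 15 sec. Cells were seeded at 1,000/well and pre-cultured 4 h.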
On the % scale 0 is the no-effect control and ±100 the full control effect; potency means the concentration at half of the fitted maximal effect; tags describe the fitted curve by direction and shape.

Compound | activity change, negative = inhibition | Potency
CCNC(=O)NC(=O)C(C)OC(=O)c1c(C)nn(Cc2ccccc2)c1Cl (configuration not stated) | inactive: 12.2% | 
N#Cc1c(NC(=O)CN2CCN(C(=O)c3ccco3)CC2)sc2c1CCCCC2 |  | inconclusive: 14.1 µM [inhibitor, partial curve]
O=C1Cc2cc([N+](=O)[O-])ccc2N1c1c(Cl)cccc1Cl | inactive: -1.07% | 
Cc1ccc(-c2csc(/C(C#N)=C/Nc3ccc4c(c3)OCCO4)n2)cc1 |  | inconclusive: 2.82 µM [inhibitor, partial curve]
COc1ccc(S(=O)(=O)N2CCCCCC2)cc1C(=O)OCc1cccc(OC)c1OC |  | inconclusive: 5.01 µM [inhibitor, partial curve]
OCCNc1ncnc2c1sc1nc(N3CCOCC3)c3c(c12)CCC3 |  | inconclusive: 2.24 µM [inhibitor, full curve, poor fit]
COc1ccc(NC(=S)NNc2ccc([N+](=O)[O-])cc2S(=O)(=O)Nc2ccc(C)cc2C)cc1 |  | active: 14.1 µM
CCN(CC)CCN(Cc1cc2cccc(C)c2[nH]c1=O)C(=S)Nc1ccccc1 |  | inconclusive: 28.2 µM [inhibitor, single point]
O=C1CCCN2N=C(SCC(=O)Nc3cccc(Cl)c3)SC2=N1 |  | inconclusive: 7.94 µM [inhibitor, partial curve]
CC1CCN(C(=O)COC(=O)CNC(=O)C23CC4CC(CC(C4)C2)C3)CC1 | inactive: -1.52% | 
CCCC(=O)Nc1nnc(SCC)s1 | inactive: 33.1% | 
CCOC(=O)c1c(-c2ccccc2)oc2ccc(O)c(CN3CCOCC3)c12 |  | inconclusive: 11.2 µM [inhibitor, partial curve]
N#CC1=C(N)C(C#N)(C#N)C(c2cccnc2)C2CN(C(=O)OCc3ccccc3)CC=C12 (configuration not stated) | inactive: -29.3% | 
Cc1cccc2sc(NC(=O)CCNS(=O)(=O)c3cccs3)nc12 | inactive: -21% | 
CC(C)(C)c1ccc(-c2n[nH]c(=S)n2C2CCCC2)cc1 |  | inconclusive: 0.501 µM [inhibitor, full curve, poor fit]
Cc1ccc(Cn2c(SCC(=O)N/N=C/c3ccc(C)o3)nc3ccccc32)cc1 | inactive: -25.6% | 
CC(C)Oc1ccc(C(=O)Nc2ccc3c(c2)n(C)c(=O)n3C)cc1 |  | inconclusive: 8.91 µM [inhibitor, partial curve]
Cc1cc(C)cc(OCC(=O)Nc2ccc(F)cc2)c1 |  | inconclusive: 5.01 µM [inhibitor, partial curve]
Cc1ccc2c(c1)nnn2C1CCN(S(=O)(=O)c2ccc3ccccc3c2)CC1 |  | inconclusive: 12.6 µM [inhibitor, partial curve]
CC(C)CNC(=O)C(=O)Nc1ccc2c(c1)N(S(=O)(=O)c1cccs1)CCC2 |  | inconclusive: 20 µM [inhibitor, single point]
CCCCN(C(=O)CNC(=O)c1ccco1)C(C(=O)NC1CCCCC1)c1cccnc1 (configuration not stated) | inactive: 11.6% | 
CC1CCN(C(=O)c2ccc(CSc3ccc(Cl)cc3)cc2)CC1 |  | inconclusive: 7.08 µM [inhibitor, partial curve]
Cn1c(=O)[nH]c(=O)c2c1nc(NN)n2CCOc1ccccc1 | inactive: -5.07% | 
COCCn1c(=NC(=O)CCS(=O)(=O)c2ccccc2)sc2cc(F)ccc21 |  | inconclusive: 2.51 µM [inhibitor, full curve]

Compound | activity change, negative = inhibition | Potency
COc1ccccc1/C=N/n1nnnc1N | inactive: -18.6% | 
CCN(Cc1ccccc1)C(=O)COC(=O)c1c(C)nsc1NC |  | active: 11.2 µM
CCN1CCN(CCNC(=O)c2cc(Cl)c(NC(=O)C3=C(C)OCCS3)cc2OC)CC1 |  | inconclusive: 7.08 µM [inhibitor, partial curve]
Cn1nnnc1SCC(=O)Nc1ccc(Oc2ccc(Cl)cc2)cc1 |  | inconclusive: 6.31 µM [inhibitor, full curve]
O=C(OCCN1C(=O)c2cccc3c(N4CCOCC4)ccc(c23)C1=O)c1ccccc1Cl |  | inconclusive: 0.501 µM [inhibitor, full curve, poor fit]
CN(C)c1cc(N/N=C/c2ccc(Cl)cc2)nc(N(C)C)n1 |  | active: 7.08 µM
O=C(Nc1ccc(-c2csc(-c3ccccc3)n2)cc1)c1ccccc1 |  | inconclusive: 10 µM [inhibitor, partial curve]
CCOP1(=O)OCC2OC(n3cnc4c(N)ncnc43)C(O)C2O1 (configuration not stated) | inactive: 22.5% | 
COCCN1CCC(CNCc2cn[nH]c2-c2ccc(C)c(C)c2)C1 (configuration not stated) |  | inconclusive: 31.6 µM [inhibitor, single point]
Cc1ccc(NC(=O)C2CCN(S(=O)(=O)c3ccc(C(C)(C)C)cc3)CC2)cc1S(=O)(=O)N1CCOCC1 |  | inconclusive: 22.4 µM [inhibitor, single point]
Cc1ccccc1NS(=O)(=O)c1ccc(C(=O)N2CCCC2)cc1 | inactive: 3.26% | 
CCOc1ncccc1C(=O)Nc1ccc(S(=O)(=O)NC2=NCCCCC2)cc1 | inactive: -19.9% | 
O=c1[nH]c2ccccc2n1Cc1ccccc1 |  | inconclusive: 35.5 µM [inhibitor, partial curve]
Cn1cc(CN2CCCC(C(=O)Nc3cccc(-n4cccn4)c3)C2)cn1 (configuration not stated) | inactive: 2.54% | 
COC(=O)c1cc(OCC(=O)Nc2ccc3c(c2)CCC3)cc(C(=O)OC)c1 |  | inconclusive: 0.501 µM [inhibitor, partial curve, poor fit]
Cc1ccc(C(c2nnnn2CC2CCCO2)N2CCN(c3cccc(C)c3C)CC2)cc1 (configuration not stated) |  | active: 11.2 µM
CCN(CC)CCNC(=O)c1ccccc1C(=O)c1ncc[nH]1 | inactive: 16.7% | 
Cc1ccc(O)c(C(=O)c2cnc3c(c2)c(C)nn3C)c1 | inactive: -17.1% | 
O=C(c1ccccc1)N(Cc1cccs1)C1CCS(=O)(=O)C1 (configuration not stated) | inactive: 18.4% | 
CCc1ccc(NC(=O)C2CCC(CNC(=O)[C@@H]3Cc4ccccc4CN3)CC2)cc1 (some centres not stated) |  | inconclusive: 11.2 µM [inhibitor, single point]
COc1ccccc1NC(=O)CCC(=O)c1ccc(-c2ccccc2)cc1 | inactive: -6.77% | 
O=C(NCC1CCCO1)c1ccc(NC(=O)c2cccc(Cl)c2)cc1 (configuration not stated) | inactive: -6.6% | 
CCN(CC(=O)NCc1cccs1)C(=O)c1ccc(S(=O)(=O)Nc2cccc(C)c2C)cc1 |  | inconclusive: 11.2 µM [inhibitor, partial curve]
CN(C(=O)c1cccc(NC(=O)Cc2ccc(NC(=O)C3CCN(C(=O)C4CCC4)CC3)cc2)c1)C1CC1 | inactive: -7.92% | 

Compound | activity change, negative = inhibition | Potency
O=C(OCC(=O)N1CCCc2ccccc21)c1cnc(Cl)c(Cl)c1 |  | active: 5.01 µM
CCOc1cccc(-c2nnc3sc(-c4cccs4)nn23)c1 |  | inconclusive: 14.1 µM [inhibitor, partial curve]
CCCc1cc(=O)oc2c(CN3CCN(C)CC3)c(O)ccc12 | inactive: 2.54% | 
CN1CCc2c(sc3c2c(=O)n(-c2ccccc2)c2nnc(SCc4ccccc4)n32)C1 |  | inconclusive: 11.2 µM [inhibitor, partial curve] and inconclusive: 562 nM [inhibitor, full curve, poor fit]
Cc1c(C(=O)N2CCc3ccccc3C2)sc2nc(-c3ccccc3)cn12 |  | inconclusive: 20 µM [inhibitor, single point] and inconclusive: 31.6 µM [inhibitor, single point]
CCC(CO)Oc1cc(NCc2cccc(C)c2)c2ncn(C(C)C)c2c1 (configuration not stated) |  | inconclusive: 10 µM [inhibitor, single point]
CN(C)C(=O)c1cc(C(=O)c2ccc(Cl)cc2Cl)c[nH]1 |  | inconclusive: 10 µM [inhibitor, partial curve]
CCN(c1cccc(C)c1)S(=O)(=O)c1cccc2nsnc12 |  | inconclusive: 31.6 µM [inhibitor, single point]
COc1ccc(Br)cc1/C=C/C(=O)Nc1ccc2ccccc2c1 |  | active: 10 µM
COC(=O)c1cc(C(=O)CC(C)C)c[nH]1 |  | inconclusive: 7.08 µM [inhibitor, partial curve, poor fit]
COc1ccc(OC)c(NC(=O)N2CCCC(CNS(=O)(=O)c3cccs3)C2)c1 (configuration not stated) | inactive: -4.79% | 
O=c1c2c3nc4ccccc4nc3n(/N=C/c3ccccn3)c2ncn1-c1ccccc1 | inactive: -84.7% | 
Cc1ccc(/C=C/C(=O)NC(=S)Nc2ccccc2C(=O)NC2CCCCC2)cc1 | inactive: -20.2% | 
O=C(c1cccc(F)c1)N1CCN(c2cccc(Cl)c2)CC1 |  | inconclusive: 22.4 µM [inhibitor, single point]
CCOC(=O)c1c(-c2ccc(C)o2)csc1NC(=O)CSc1nnnn1-c1ccccc1 |  | active: 1.78 µM
CC(C)C(C(=O)Nc1ccc2c(c1)OCCOCCOCCOCCO2)N1C(=O)c2ccccc2C1=O (configuration not stated) | inactive: 8.77% | 
COc1cccc(C(=O)C2CCCN(C(=O)c3cccc(C#CC(C)(C)O)c3)C2)c1 (configuration not stated) | inactive: -17.2% | 
CC(C)(C)c1ccc(OCC(O)CN2CCOCC2)cc1 (configuration not stated) |  | inconclusive: 25.1 µM [inhibitor, single point]
CC(=O)Nc1ccc(SCC(=O)Nc2ccccc2Oc2ccccc2)cc1 |  | inconclusive: 14.1 µM [inhibitor, single point]
COc1ccc(C)cc1NS(=O)(=O)c1ccc2c(c1)N(C)CCO2 |  | inconclusive: 31.6 µM [inhibitor, single point]
O=C(Cn1nnc(-c2ccccc2)n1)Nc1cccc(S(=O)(=O)N2CCCC2)c1 |  | inconclusive: 10 µM [inhibitor, partial curve, poor fit]
COc1ccc(CCNC(=O)COC(=O)c2cc(Cl)nc(Cl)c2)cc1 | inactive: 8% | 
CC(=O)NN1C(=O)c2ccccc2NC1c1ccc([N+](=O)[O-])o1 (configuration not stated) |  | inconclusive: 31.6 µM [inhibitor, single point]
CC(C)NCCCCOc1ccccc1-c1ccccc1 |  | inconclusive: 31.6 µM [inhibitor, single point]

From PubChem BioAssay AID651820 (National Center for Advancing Translational Sciences (NCATS), 2012)
